This passage reports relative growth results from the supplement of paper PMC9446081.

Among all 39,000 compounds or so, about 220 (0.56%) showed activity. Some of the results follow.
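Note: static incubation at 37 °C against the wild-type strain, values averaged over two biological replicates.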

The assay relates to Escherichia coli K-12 BW25113. Briefly: relative growth (OD600 normalised to plate interquartile mean) (fraction); higher = less growth inhibition, active = 0.2 or less. The following applies: 50 µM; LB; incubation time: overnight (16-24 h).
For the compound `C[C@@H]1CN([C@@H](C)CO)C(=O)c2cccc(NS(=O)(=O)c3cccs3)c2O[C@H]1CN(C)Cc1ccc(-c2ccccc2)cc1`, the relative growth was inactive: 0.997. For the compound `C[C@H]1CCCCO[C@H](CN(C)C(=O)Cc2ccccc2)[C@@H](C)CN([C@@H](C)CO)C(=O)c2cc(NC(=O)C3CCCCC3)ccc2O1`, the relative growth was inactive: 0.966.

`O=C(Nc1ccc(Oc2ccc(Cl)cc2)c(Cl)c1)c1cc(I)cc(I)c1O`: the relative growth was inactive: 0.987. On to `COc1ccc(NC(=O)Nc2ccc3c(c2)C(=O)N([C@H](C)CO)C[C@@H](C)[C@H](CN(C)S(=O)(=O)c2ccccc2)OCCCC[C@@H](C)O3)cc1`, for which the relative growth is inactive: 1. Under `COc1cccc(S(=O)(=O)N(C)C[C@@H]2Oc3ncc(C#CC(C)C)cc3C(=O)N([C@H](C)CO)C[C@H]2C)c1` stands inactive: 1.03; under `C[C@@H]1CN([C@@H](C)CO)C(=O)c2cc(NC(=O)Nc3ccc(C(F)(F)F)cc3)ccc2O[C@H]1CN(C)Cc1ccc2c(c1)OCO2`, inactive: 0.964. `OC[C@@H](O)CN1CCN(c2ccccc2)CC1`: the relative growth was inactive: 1.02.

Regarding `NC1(C(=O)N2CCCN(S(=O)(=O)c3ccccc3)CC2)Cc2ccccc2C1`, the relative growth is inactive: 0.992.

For the compound `O=C(NC1CCC1)[C@H]1[C@H](CO)[C@H]2Cn3c(cccc3=O)[C@H]2N1CC1CCOCC1`, the relative growth is inactive: 0.995. Turning to `Cc1cncc2cccc(S(=O)(=O)NCCCN(C/C=C/c3ccc(Br)cc3)C/C=C/c3ccc(Br)cc3)c12`, the relative growth was inactive: 0.988. Under `O=C(C[C@@H]1C[C@H]2c3cc(NC(=O)c4ccc5c(c4)OCO5)ccc3O[C@H]2[C@H](CO)O1)NCCc1ccccc1` stands inactive: 1; under `C[C@H](CO)N1C[C@H](C)[C@H](CN(C)Cc2ccc3c(c2)OCO3)Oc2ccc(NC(=O)CCCN(C)C)cc2C1=O`, inactive: 1.01; under `C[C@@H]1CN([C@H](C)CO)C(=O)c2cc(C#Cc3ccc(F)cc3)cnc2O[C@H]1CN(C)Cc1ccccn1`, inactive: 0.986. The result for `O=C(C[C@@H]1C[C@H]2c3cc(NS(=O)(=O)c4ccc(F)cc4)ccc3O[C@H]2[C@H](CO)O1)NCc1ccccc1F` reads inactive: 0.991; that for `C[C@H](CO)N1C[C@H](C)[C@H](CN(C)Cc2ccc(F)cc2)Oc2cc(C#CCN(C)C)ccc2S1(=O)=O`, inactive: 0.975; that for `C[C@@H]1CN([C@@H](C)CO)C(=O)c2cc(NC(=O)NC3CCCCC3)ccc2O[C@@H](C)CCCCO[C@H]1CN(C)Cc1ccc(C(=O)Nc2ccccc2N)cc1`, inactive: 0.976. The result for `C[C@@H]1CN([C@H](C)CO)C(=O)c2cc(NS(=O)(=O)c3ccc(F)cc3)ccc2O[C@@H]1CN(C)CC1CC1` reads inactive: 1.01.

Consider `Nc1ncccc1O`, for which the relative growth was inactive: 1.03. The result for `NC[C@H]1OB(O)c2c(OCCCO)cccc21` reads active: 0.04. The result for `C[C@@H]1CN([C@@H](C)CO)C(=O)c2cc(NC(=O)Cc3cn(C)c4ccccc34)ccc2O[C@H]1CN(C)S(=O)(=O)c1cn(C)cn1` reads inactive: 0.974; that for `COc1ccc(S(=O)(=O)N[C@H]2C=C[C@@H](CC(=O)N3CCN(c4ccccc4)CC3)O[C@@H]2CO)cc1`, inactive: 1.01; that for `COc1ccc(NC(=O)N(C)C[C@H]2OCCCC[C@H](C)Oc3ccc(NC(=O)Nc4ccccc4)cc3C(=O)N([C@@H](C)CO)C[C@H]2C)cc1`, inactive: 1.01. On to `COc1ccc(S(=O)(=O)N(C)C[C@@H]2Oc3c(NS(=O)(=O)c4c(C)noc4C)cccc3C(=O)N([C@H](C)CO)C[C@@H]2C)cc1`, for which the relative growth is inactive: 0.999. The result for `C[C@@H]1CN([C@H](C)CO)C(=O)Cc2cc(NS(=O)(=O)c3ccccc3)ccc2O[C@@H]1CN(C)Cc1ccc2c(c1)OCO2` reads inactive: 0.989. The result for `COc1cccc(CN(C)C[C@H]2OCc3ccccc3-c3c(n(C)c4ccccc34)C(=O)N([C@@H](C)CO)C[C@H]2C)c1` reads inactive: 0.982. For `C[C@@H]1CCCCO[C@@H](CN(C)C(=O)CCCN(C)C)[C@H](C)CN([C@@H](C)CO)C(=O)c2cc(NS(C)(=O)=O)ccc2O1`, the relative growth is inactive: 0.989. The result for `O=C(C[C@H]1C[C@@H]2c3cc(NC(=O)C4CCOCC4)ccc3O[C@@H]2[C@@H](CO)O1)NCc1cc(F)ccc1F` reads inactive: 0.984; that for `Cc1noc(C)c1S(=O)(=O)N(C)C[C@H]1OCCCC[C@H](C)Oc2ccc(NC(=O)Nc3ccccc3)cc2C(=O)N([C@H](C)CO)C[C@@H]1C`, inactive: 0.991.

For `CNC(=O)C[C@@H]1CC[C@@H]2[C@H](COC[C@@H](O)CN2C(=O)c2ccc3c(c2)OCO3)O1`, the relative growth is inactive: 0.995. Consider `Cc1ccc(S(=O)(=O)N(C)C[C@H]2Oc3ccc(NS(=O)(=O)c4cccs4)cc3C(=O)N([C@H](C)CO)C[C@@H]2C)cc1`, for which the relative growth is inactive: 1.03. The result for `CO[C@@H]1CN(C)C(=O)c2ccc(NC(=O)C3CC3)cc2OC[C@@H](C)N(C(=O)C2CCOCC2)C[C@H]1C` reads inactive: 1.03; that for `C[C@@H]1CCCCO[C@@H](CN(C)Cc2ccc(C(=O)O)cc2)[C@H](C)CN([C@H](C)CO)C(=O)c2cc(NC(=O)Nc3cccc4ccccc34)ccc2O1`, inactive: 1. The result for `C[C@@H]1CCCCO[C@@H](CN(C)C(=O)Nc2ccc3c(c2)OCO3)[C@H](C)CN([C@H](C)CO)C(=O)c2cc(NC(=O)Nc3cccc4ccccc34)ccc2O1` reads inactive: 1.02; that for `OCc1cccc(Cn2cncn2)c1`, inactive: 1.02; that for `C[C@@H]1CN([C@@H](C)CO)C(=O)c2cccc(NS(=O)(=O)c3ccc(F)cc3)c2O[C@@H]1CN(C)Cc1ccc(Oc2ccccc2)cc1`, inactive: 0.991.

Consider `Cc1cc(CN)cc(C)c1NC(=O)c1ccc(-c2cc(Cl)ccc2Cl)o1`, for which the relative growth is inactive: 0.978. Take `C[C@H]1CN([C@@H](C)CO)C(=O)Cc2cc(NS(=O)(=O)c3ccc(F)cc3)ccc2O[C@H]1CN(C)Cc1ccc(Oc2ccccc2)cc1`: the relative growth is inactive: 1.01. Under `O=C1O[C@@H](c2ccccc2)[C@@H](c2ccccc2)N2[C@@H](c3ccc(O)cc3)[C@]3(C(=O)Nc4ccc(C#CCCO)cc43)[C@@H](C(=O)N3CCCCCCC3)[C@H]12` stands inactive: 1.02; under `CN(C)CC(=O)N[C@@H]1CC[C@H](CCNC(=O)C2CCC2)O[C@@H]1CO`, inactive: 1. Regarding `COc1ccc(CN(C)C[C@@H]2Oc3ccc(NS(=O)(=O)c4cn(C)cn4)cc3C(=O)N([C@H](C)CO)C[C@@H]2C)cc1`, the relative growth is inactive: 0.981. Under `C[C@H]1CN([C@@H](C)CO)C(=O)c2c(c3ccccc3n2C)-c2ccccc2CO[C@H]1CN(C)C(=O)Nc1ccccc1` stands inactive: 0.996. The result for `C[C@H](CO)N1C[C@H](C)[C@H](CN(C)C(=O)Nc2ccc3c(c2)OCO3)OCCCC[C@H](C)Oc2ccc(NS(=O)(=O)c3ccc(F)cc3)cc2C1=O` reads inactive: 1.04. The result for `c1ccc2c(c1)[nH]c1ncccc12` reads inactive: 0.861; that for `Cc1noc(C)c1NC(=O)Nc1cccc2c1O[C@H](CN(C)Cc1ccc(-c3ccccc3)cc1)[C@@H](C)CN([C@@H](C)CO)C2=O`, inactive: 1.01. `C/C(C[P+](c1ccccc1)(c1ccccc1)c1ccccc1)=N\NC(=O)CCCCCC(=O)Nc1ccccc1O`: the relative growth is inactive: 0.996. Under `COc1ccc(NC(=O)Nc2ccc3c(c2)CC(=O)N([C@H](C)CO)C[C@H](C)[C@H](CN(C)S(=O)(=O)c2c(C)noc2C)O3)cc1` stands inactive: 0.989; under `COCC#Cc1cnc2c(c1)C(=O)N([C@@H](C)CO)C[C@H](C)[C@@H](CN(C)C(=O)CN1CCOCC1)O2`, inactive: 1; under `Cc1cc(-c2ccccc2)nnc1NCCN1CCOCC1.Cl.Cl`, inactive: 0.942.

In the case of `CC/N=c1\nc(NCC)[nH]c(=S)[nH]1`, the relative growth was inactive: 0.983. The result for `Cc1cc(O)cc2c1O[C@](C)(CCC[C@H](C)CCC[C@H](C)CCCC(C)C)CC2` reads inactive: 1.02; that for `C[C@@H]1CN([C@@H](C)CO)C(=O)c2cc(-c3ccc(C(=O)N(C)C)cc3)cnc2O[C@@H]1CN(C)C(=O)CN(C)C`, inactive: 1.01.

On to `C[C@@H]1CN([C@@H](C)CO)C(=O)c2cc(NS(=O)(=O)c3ccccc3)ccc2O[C@H]1CN(C)Cc1ccc(-c2ccccc2)cc1`, for which the relative growth is inactive: 0.973.

As for `C[C@@H]1CN([C@H](C)CO)C(=O)c2cc(C#Cc3cccc(F)c3)cnc2O[C@H]1CN(C)Cc1ccccn1`, the relative growth is inactive: 1.01. With `C[C@H]1CN([C@@H](C)CO)C(=O)c2cc(NC(=O)Nc3ccc(C(F)(F)F)cc3)ccc2O[C@@H]1CN(C)Cc1ccccc1`, the relative growth was inactive: 0.978. The result for `C[C@@H]1CCCCO[C@@H](CN(C)C(=O)Nc2cccc3ccccc23)[C@@H](C)CN([C@H](C)CO)C(=O)c2cc(NC(=O)c3ccncc3)ccc2O1` reads inactive: 1.01; that for `CCCCCCCCCCCCCCCCCC(=O)OC[C@@H](COP(=O)(O)OCC[N+](C)(C)C)OC(=O)CCCCCCCCCCCCCCCCC`, inactive: 1.05.

Consider `Cc1ccc(CNC(=S)NCCO)cc1`, for which the relative growth was inactive: 1.02.

For `Cc1noc(C)c1NC(=O)N(C)C[C@@H]1Oc2ccc(NC(=O)C3CC3)cc2CC(=O)N([C@H](C)CO)C[C@@H]1C`, the relative growth was inactive: 0.971.

Regarding `CC(C)CC#Cc1ccc2c(c1)O[C@H](CN(C)C(=O)Cc1ccccn1)[C@@H](C)CN([C@H](C)CO)S2(=O)=O`, the relative growth is inactive: 1. Regarding `C[C@H](CO)N1C[C@H](C)[C@@H](CN(C)S(=O)(=O)c2ccccc2)Oc2ccc(NS(=O)(=O)c3cn(C)cn3)cc2C1=O`, the relative growth was inactive: 1.01. As for `C[C@@H]1CN([C@H](C)CO)C(=O)c2cccc(NC(=O)Nc3ccc4c(c3)OCO4)c2O[C@H]1CN(C)C(=O)Nc1cccc2ccccc12`, the relative growth was inactive: 1.03.

With `C[C@H](CO)N1C[C@H](C)[C@@H](CN(C)S(=O)(=O)c2cccc(F)c2)Oc2ncc(Br)cc2C1=O`, the relative growth was inactive: 1.03.
